# Laboratory results from PubChem BioAssay AID686978 (National Center for Advancing Translational Sciences (NCATS), 2013).
# Several values for one entry are separate records, joined by “and”; a condition that tells them apart may be missing. Equal values may be shown once. About 64,000 (15%) of roughly 420,000 compounds were called active. The shares of active, inactive and inconclusive entries below differ from those in the screen. Calls follow the shape of the dose curve; as a rule, active = well fitted inhibition curve with a large enough effect; inconclusive = small, poorly fitted or top-dose-only effect; inactive = flat fitted curve, though single readings scatter. Potencies beside an inconclusive call are fits to weak or partial responses and may not hold up.
# Experiment: qHTS for Inhibitors of human tyrosyl-DNA phosphodiesterase 1 (TDP1): qHTS in cells in absence of CPT; also: nearly all actives have a fitted effect of over 55% in size
# Settings: DT40 Tdp1-/- hTDP1 cells, no CPT, ATP luminescence, 48 h; activity change, negative = growth inhibition: at 46.2 µM (top of the series) unless noted
# Procedure, shortened: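 Chicken DT40 Tdp1-/- cells stably complemented with human TDP1 were seeded at 400 cells/well with DMSO in place of 20 nM camptothecin. After compound pinning, cells grew at least 48 hr at 37 °C; viability read by CellTiter-Glo luminescence.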
# % is scaled to controls: 0 for no effect and ±100 for the full control effect; potency is read from the fitted curve at half-maximal effect; tags tell the direction and shape of the fitted curve.
Structure (SMILES),Potency,"activity change, negative = growth inhibition"
O=C1c2ccccc2NC(c2cccc([N+](=O)[O-])c2)N1O (stereo not drawn),"inconclusive: 23.1 µM [inhibitor, single point]",–
COc1cc2cc(OC(C)=O)c3cc4c(cc3c2c(OC)c1OC)OCO4,–,inactive: -1.77%
O=C(CN1CCN(c2ccc(F)cc2)CC1)Nc1nnc(-c2ccccc2)s1,–,inactive: 3.68%
CCCn1c(N)c(C(=O)CSc2nnc(C3CC3)n2Cc2ccccc2)c(=O)n(C)c1=O,–,inactive: -14%
COc1ccccc1CNC(=O)CCC1N=C2c3ccccc3N=C(SCc3ccc(C)cc3)N2C1=O (stereo not drawn),"inconclusive: 16.4 µM [inhibitor, single point]",–
COc1ccccc1NS(=O)(=O)c1cc(C(=O)NCc2cccnc2)ccc1C,"inconclusive: 18.4 µM [inhibitor, single point]",–
COC(=O)c1c(NC(=O)Nc2ccc(Cl)cc2)sc(C)c1C,"inconclusive: 18.4 µM [inhibitor, single point] and inconclusive: 23.1 µM [inhibitor, single point]",–
COc1ccc(NC(=O)c2nc[nH]c2C(=O)N(C)CCO)cc1,–,inactive: 2.71%
COCCCN1C(=O)C(CC(=O)NC2CCCC2)CC(C(=O)N(C(C)C)C(C)C)=C1C (stereo not drawn),–,inactive: -9.08%
CC(C)c1ccc(/C=N/NC(=O)c2cc(-c3cccc([N+](=O)[O-])c3)n[nH]2)cc1,"inconclusive: 20.6 µM [inhibitor, partial curve, poor fit]",–
CCC(=O)NC(c1ccc(C)cc1)c1cc([N+](=O)[O-])c2cccnc2c1O (stereo not drawn),active: 20.6 µM,–
Cc1ccccc1N=C1NN=C(c2ccccc2F)CS1,"inconclusive: 29.1 µM [inhibitor, single point]",–
O=S(=O)(c1cccc(C(F)(F)F)c1)N1CCN(c2nnnn2-c2ccccc2)CC1,–,inactive: -1.57%
Cc1cc2oc(C(=O)Nc3c(C)n(C)n(-c4ccccc4)c3=O)c(C)c2cc1C,"inconclusive: 29.1 µM [inhibitor, single point]",–
CN(C)S(=O)(=O)c1ccc(NC(=O)CCCNC(=O)c2ccc(Cl)cc2)cc1,–,inactive: -15.8%
CCCS(=O)(=O)c1c(S(=O)(=O)CCC)c2c3ccccc3ccn2c1C(=O)OC,active: 25.9 µM,–
Cc1noc(C)c1COC(=O)c1cccc(S(=O)(=O)N2c3ccccc3CC2C)c1 (stereo not drawn),"inconclusive: 18.4 µM [inhibitor, single point]",–
CC(NC(=O)Nc1ccc(F)cc1)c1ccc2c(c1)OCO2 (stereo not drawn),–,inactive: 5.49%
CC(C(=O)Nc1ccc2c(c1)OCCO2)N(C)Cc1c(F)cccc1Cl (stereo not drawn),"inconclusive: 29.1 µM [inhibitor, single point]",–
CCOC(=O)C1=C(CS(=O)(=O)c2ccccc2)NC(=O)NC1c1ccccc1OC (stereo not drawn),"inconclusive: 29.1 µM [inhibitor, single point]",–
CCOc1cc(N2CCOCC2)c(OCC)cc1NC(=O)c1ccc(OCc2c(C)noc2C)c(OC)c1,active: 10.3 µM,–
COCCOC(=O)C1=C(C)N=C2SCCC(=O)N2C1c1cccc(Br)c1 (stereo not drawn),–,inactive: 1.72%
NC(=O)c1cccn1Cc1cccc(Cl)c1,"inconclusive: 14.6 µM [inhibitor, partial curve, poor fit]",–
COc1cc(CC(=O)NCc2cccs2)cc(OC)c1OC,"inconclusive: 11.6 µM [inhibitor, partial curve, poor fit]",–
CCOC(=O)c1c(NC(=O)c2cccs2)sc(C)c1CC,"inconclusive: 23.1 µM [inhibitor, single point]",–

Structure (SMILES),Potency,"activity change, negative = growth inhibition"
Clc1cccc(Cl)c1/C=N/Nc1c(Cl)cncc1Cl,active: 3.26 µM,–
CC(=O)Nc1cccc(/C(C)=N/NS(=O)(=O)c2ccc(C)cc2)c1,–,inactive: -2.69%
CCCOc1ccc(N2C(=O)CC(N(O)c3ccccc3)C2=O)cc1 (stereo not drawn),–,inconclusive: -30.6% [inhibitor]
CN(CC(=O)Nc1ccc(Cl)c(C(F)(F)F)c1)C(=O)C1CCN(C(=O)c2ccc(Cl)cc2)CC1,"inconclusive: 29.1 µM [inhibitor, single point]",–
CS(=O)(=O)N1CCc2cc(C(=O)N3CCN(c4ccccc4)CC3)ccc21,"inactive and inconclusive: 29.1 µM [inhibitor, single point]",–
CN(Cc1ccccn1)Cc1cn(Cc2ccccc2)nc1-c1ccc2c(c1)OCO2,active: 23.1 µM,–
O=C(/C=C/c1ccccc1Cl)c1ccc[nH]1,"inconclusive: 16.4 µM [inhibitor, partial curve, poor fit]",–
O=C(CC(c1ccccc1)c1cc(Br)ccc1O)N1CCCCC1 (stereo not drawn),"inconclusive: 32.6 µM [inhibitor, partial curve, poor fit]",–
COc1ccc(CNCCC(c2ccccc2)c2ccc3c(c2)OCO3)cc1 (stereo not drawn),active: 20.6 µM and active: 5.8 µM,–
O=C(CSCc1ccc(Cl)cc1)Nc1ccccc1O,"inconclusive: 29.1 µM [inhibitor, single point]",–
O=S(=O)(c1ccc(Cl)cc1)N1CCCN(c2ccc(C(F)(F)F)cn2)CC1,"inconclusive: 29.1 µM [inhibitor, single point]",–
Cn1c(/C=C/c2ccc([N+](=O)[O-])o2)nc2ccccc2c1=O,active: 0.259 µM,–
O=C(c1ccc(CS(=O)Cc2ccc(Cl)cc2)o1)N1CCN(C2CCCCC2)CC1 (stereo not drawn),"inconclusive: 23.1 µM [inhibitor, partial curve]",–
O=C(NC1CCN(C(=S)NCc2ccco2)CC1)NC12CC3CC(CC(C3)C1)C2,–,inconclusive: -35.6% [inhibitor]
COc1ccccc1C(=O)N/C(=C/c1cccc([N+](=O)[O-])c1)C(=O)Nc1cccc(C(=O)O)c1,"inconclusive: 25.9 µM [inhibitor, single point]",–
O=[N+]([O-])c1c(Nc2ccccc2O)ccc2nonc12,–,inactive: -25.2%
COc1ccccc1NC1=C(C)C(=O)CC1,"inconclusive: 23.1 µM [inhibitor, single point]",–
COCCN1Cc2cccc(C(=O)Nc3cccnc3)c2C1=O,–,inconclusive: -35.5% [inhibitor]
COc1cccc(OC)c1C(=O)NCCSC1CCCCC1,active: 18.4 µM,–
CC1CCC(NC(=O)c2cccn2C)CC1 (stereo not drawn),"inconclusive: 5.8 µM [inhibitor, partial curve]",–
CC(O)c1c(-c2ccccc2)nn(C)c1Cl (stereo not drawn),"inconclusive: 20.6 µM [inhibitor, partial curve, poor fit]",–
Cc1ccc2[nH]c3c(c2c1)CN(C(=O)CN(C)CC1OCCO1)CC3,–,inactive: -0.653%
CCCC1=Nc2cc(C(=O)NCCc3ccccc3)ccc2Sc2ccc(C)cc21,active: 6.51 µM,–
COc1cccc(C(c2nnnn2C(C)(C)C)N2CCN(C3CCCCC3)CC2)c1OC (stereo not drawn),–,inactive: -9.02%
COc1ccccc1NC(=O)NCc1cccn1Cc1ccccc1,"inconclusive: 20.6 µM [inhibitor, single point]",–

Structure (SMILES),Potency,"activity change, negative = growth inhibition"
Cc1ccc(S(=O)(=O)N2C[C@H]3[C@H]4C(=O)N(c5ccccc5)C(=O)[C@H]4C[C@H](OC(=O)NC4CC4)[C@@]3(O)C2)cc1,–,inactive: -29.2%
O=C(N/N=C/c1cccn1-c1ccc([N+](=O)[O-])cc1)c1cccnc1,active: 25.9 µM,–
CCC(CC)C(=O)N(C)c1c(C)nc2c(OCC=C(C)C)cccn12,active: 16.4 µM,–
COc1ccc(NC(=O)C2CCCN(S(C)(=O)=O)C2)cc1OC (stereo not drawn),–,inactive: 10.9%
CC(C)Oc1ccc(CNC(=O)CC(c2ccccc2)c2cc(Cl)ccc2O)cc1 (stereo not drawn),"inconclusive: 29.1 µM [inhibitor, single point]",–
CCCn1c(SC(C)C(=O)NCC2CCCO2)nc2sc(CC)cc2c1=O (stereo not drawn),"inconclusive: 29.1 µM [inhibitor, single point]",–
O=[N+]([O-])c1ccc(CN2CCOCCOCCOCC2)cc1,–,inactive: -1.74%
O=C(O)Cc1ccc(NC(=O)Nc2ccc3c(c2)OCO3)cc1,–,inactive: 1.96%
CCCCN(CC)C(=O)c1cc2cc3ccc(OC)cc3nc2o1,"inconclusive: 23.1 µM [inhibitor, single point]",–
CCN1CCN(c2ccc(Nc3ccnc4ccccc34)cc2)CC1,active: 5.8 µM,–
CNCC(=O)c1c[nH]c2ccccc12,"inconclusive: 35.5 µM [inhibitor, single point]",–
CCOc1ccc(-c2nc(SCC(=O)NC3CCCC3)c(-c3ccccc3)[nH]2)cc1OC,"inconclusive: 18.4 µM [inhibitor, single point]",–
CCc1ccccc1-n1ncc(C(=O)Nc2ccccc2OC)c1C,–,inactive: -4.77%
CCOc1ccc(CCNC(=O)c2[nH]c(C)c(C(C)=O)c2C)cc1OCC,"inconclusive: 25.9 µM [inhibitor, single point]",–
CCOc1ccc(NC(=O)/C=C\C(=O)N(c2ccc(C(C)C)cc2)C(C(=O)NCc2ccco2)c2ccc(F)cc2)cc1 (stereo not drawn),active: 13 µM,–
CC(C)(CN1CCCN(CC(C)(C)C(=O)O)C1=O)C(=O)O,–,inactive: -5.9%
COc1ccc(-c2cnn3c(C)cc(C)nc23)cc1OC,"inconclusive: 29.1 µM [inhibitor, single point]",–
CNc1nc(Nc2ccccc2)nc(OCC(F)(F)F)n1,"inconclusive: 29.1 µM [inhibitor, single point]",–
CC(Oc1cccc(Br)c1)C(=O)NNC(=O)c1ccccn1 (stereo not drawn),active: 2.31 µM,–
COc1ccc(OCCSc2ncnc3nc[nH]c23)cc1,"inconclusive: 29.1 µM [inhibitor, single point]",–
OCc1ccccc1-c1cnc2cccnn12,–,inactive: -10.3%
COc1ccccc1NC(=O)c1ccccc1NS(=O)(=O)c1cccs1,–,inactive: -8.74%
COc1ccc(NC(=O)Cn2cnc3ccc(S(=O)(=O)N4CCC(C)CC4)cc3c2=O)cc1OC,"inconclusive: 23.1 µM [inhibitor, single point]",–
